Assay results published in PMC4336329 (PLoS ONE, 2015).
In all, about 310,000 compounds went through this assay and about 14,000 (4.5%) showed an effect of 50% or more. Effects have a minus sign here. Some of the results follow.

target: human ether-à-go-go-related gene (hERG) potassium channel (human, UniProt Q12809); test: primary screen, population patch clamp on CHO cells stably expressing hERG
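Further: peak tail current of the secondary pulse compared with the same well before compound.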

Sequence of human ether-à-go-go-related gene (hERG) potassium channel (Q12809 whole entry, looked up): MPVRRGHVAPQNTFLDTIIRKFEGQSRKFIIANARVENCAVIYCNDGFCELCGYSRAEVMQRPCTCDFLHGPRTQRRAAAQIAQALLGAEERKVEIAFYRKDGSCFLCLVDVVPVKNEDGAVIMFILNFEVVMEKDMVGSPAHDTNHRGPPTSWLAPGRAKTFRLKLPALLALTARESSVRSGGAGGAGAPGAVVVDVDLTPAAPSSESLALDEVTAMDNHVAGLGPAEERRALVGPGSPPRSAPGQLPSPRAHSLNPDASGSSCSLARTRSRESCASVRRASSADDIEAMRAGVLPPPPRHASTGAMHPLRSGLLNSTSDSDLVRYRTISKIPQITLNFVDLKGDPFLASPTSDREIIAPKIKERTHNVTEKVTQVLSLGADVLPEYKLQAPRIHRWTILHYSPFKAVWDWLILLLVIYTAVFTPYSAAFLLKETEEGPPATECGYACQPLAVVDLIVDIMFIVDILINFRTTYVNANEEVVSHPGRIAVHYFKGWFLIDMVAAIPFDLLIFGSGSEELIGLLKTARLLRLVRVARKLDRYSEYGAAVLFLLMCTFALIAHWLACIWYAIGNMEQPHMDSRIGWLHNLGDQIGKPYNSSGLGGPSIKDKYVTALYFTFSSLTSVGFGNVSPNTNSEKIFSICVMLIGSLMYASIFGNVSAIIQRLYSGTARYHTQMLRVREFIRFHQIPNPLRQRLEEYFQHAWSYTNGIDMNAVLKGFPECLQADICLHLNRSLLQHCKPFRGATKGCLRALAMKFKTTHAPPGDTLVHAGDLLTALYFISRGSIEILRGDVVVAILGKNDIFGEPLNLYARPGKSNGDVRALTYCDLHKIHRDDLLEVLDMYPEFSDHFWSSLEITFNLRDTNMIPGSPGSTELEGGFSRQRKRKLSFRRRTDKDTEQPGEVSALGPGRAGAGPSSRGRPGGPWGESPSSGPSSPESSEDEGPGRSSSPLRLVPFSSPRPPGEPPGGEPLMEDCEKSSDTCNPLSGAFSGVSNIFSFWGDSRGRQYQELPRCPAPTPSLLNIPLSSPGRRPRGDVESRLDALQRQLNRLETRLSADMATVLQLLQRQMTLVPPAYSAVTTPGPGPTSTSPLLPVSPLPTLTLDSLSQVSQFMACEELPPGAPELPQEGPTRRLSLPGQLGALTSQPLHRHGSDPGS

Structure (SMILES) | hERG current change (%, negative = inhibition) at 10uM
CCn1cc(/C=N\NC(=O)COc2cccc(C)c2C)c(C)n1 | -22.6%
O=C(c1ccncc1)N(Cc1cc2ccccc2[nH]c1=O)C1CCCCC1 | -2.86%
Cc1cccc(NC(=O)CN2C(=O)N/C(=C/c3cc(C)n(-c4cccnc4)c3C)C2=O)c1 | 18.8%
O=C(CCn1nnc2ccccc2c1=O)N[C@@H](Cc1ccccc1)C(=O)O | 5.05%
O=C(N1CCOCC1)N1CCN(S(=O)(=O)N2CCOCC2)CC1 | 11.3%
Cc1cccc(OCCCC(=O)Nc2ccc(N3CCCCC3)cc2)c1C | 11.5%
Cc1nonc1CC(=O)N1CCCC(C(=O)c2ccc(Cl)cc2)C1 (stereo not shown) | -8.66%
CSc1cccc(NC(=O)CSc2ccc(C)cc2)c1 | 9.17%
Cc1ccc(NC2(C#N)C(=O)Nc3ccccc32)cc1 (stereo not shown) | 5.81%
COc1ccc(OC)c(-n2c(-c3ccc(S(C)(=O)=O)cc3)cc(C=O)c2C)c1 | -32.4%
C[n+]1ccc(/C=N/Nc2nc(Cl)c(C#N)c(Cl)c2Cl)cc1.[Cl-] | 20.2%
CC(C)Nc1c(N)c(=O)oc2ccccc12 | 9.17%
CCC(=O)c1cn(CC(=O)Nc2cccc(C)c2)c2ccccc12 | 11%
O=C(/C=C/Nc1ccc(F)c(Cl)c1)c1ccccc1 | 16.8%
CCOC(=O)C1CCN(Cc2cc(=O)oc3cc(C)ccc23)CC1 | -47.8%
CC(OC(=O)CC1CC2CCC1C2)C(=O)Nc1ccc(N2CCOCC2)cc1 (stereo not shown) | 6.7%
CCO.O=c1[nH]c(NNC(=S)NC2CCCCC2)nc2c1C1(CCCC1)Cc1ccccc1-2 | 8.58%
O=C(c1cc2ccccc2oc1=O)N1CCN(Cc2ccc3c(c2)OCO3)CC1 | -53.7%
O=C(Nc1ccc(F)c(F)c1)C1CCCN1S(=O)(=O)c1ccc(F)cc1 (stereo not shown) | 10.5%
CN(CC(=O)Nc1ccc(Cl)c(Cl)c1)Cc1nnc(-c2ccc(F)cc2)o1 | -63.3%
O=C(N/N=C/C1C(c2ccccc2)C1(Cl)Cl)c1cccc(Cl)c1 (stereo not shown) | -14.5%
COc1ccc(NC(=O)CN(C)C(=O)c2ccc(N3CCCCC3)c([N+](=O)[O-])c2)cc1 | -76.8%
CCCc1nc2ccccc2c(=O)n1CC(=O)c1ccc(F)cc1 | 6.68%
O=C(CC(c1ccccc1)c1ccccc1)Nc1ccc2c(c1)OCCO2 | -9.02%
CCc1ccccc1NC(=O)c1cc([N+](=O)[O-])ccc1N1CCOCC1 | -16.5%
Cc1ccc(C(=O)NCC(=O)OCn2nnc3ccccc3c2=O)cc1 | 1.84%
COc1ccc(C(=O)COC(=O)Cc2n[nH]c(=O)c3ccccc23)c(OC)c1 | 16.7%
CCCn1c(NCc2c[nH]c3ccccc23)nc2ccccc21 | -34.6%

Structure (SMILES) | hERG current change (%, negative = inhibition) at 10uM
Cc1cccc(OCC(=O)N2CCN(S(C)(=O)=O)CC2)c1 | 11.2%
CC(C)C(=O)Nc1cccc(-c2cnc3ccccc3n2)c1 | 4.12%
COc1ccc(NC(=S)NC(=O)/C=C/c2ccccc2)cc1 | 2.26%
COc1ccc(NS(=O)(=O)c2cccc(C(=O)NNC(=O)c3ccc(O)c(Cl)c3)c2)cc1 | -0.207%
CC(C)c1ccccc1NC(=O)CNC(C)c1ccc(F)cc1 (stereo not shown) | 11.8%
COc1ccc(S(=O)(=O)Nc2c(C(=O)O)[nH]c3ccccc23)cc1 | 6.47%
CCOC(=O)C1(Cc2cccc(Cl)c2)CCCN(C(=O)c2occc2C)C1 (stereo not shown) | -13.9%
COc1ccc(NC2CCCN(C(=O)CCCn3cncn3)C2)cc1OC (stereo not shown) | 6.66%
O=C(NCCO)C(=O)Nc1cc2c3c(c1)CCC(=O)N3CCC2 | 12.3%
CCOC(=O)C(CC)/C(C)=N\NC(=O)CCC(=O)Nc1ccc(Cl)cc1Cl (stereo not shown) | -7.86%
COc1ccc(CNC(=O)CSc2nc3ccc(N)cc3s2)cc1 | -8.02%
Cc1c(OCC(=O)N(C)c2ccccc2)ccc2c3c(c(=O)oc12)CCC3 | -29.9%
COc1ccc(Nc2cc(C(=O)NCc3cccnc3)c3ccccc3n2)c(OC)c1 | -17.8%
CN(Cc1c(F)cccc1Cl)C(=O)c1cc2ccccc2o1 | -9.31%
O=[N+]([O-])[N-][n+]1cnn(Cc2ccccc2)c1 | 11.6%
Cc1cc(C)c2[nH]c(=O)c(C(c3nnnn3CC3CCCO3)N3CCC(C)CC3)cc2c1 (stereo not shown) | -15.3%
O=C(NCC(=O)N1CCN(c2ccccc2)CC1)c1ccc(Br)o1 | -39.9%
Cc1cc(Nc2ccc(Br)cc2)nc(-c2ccccc2O)n1 | 19.9%
Brc1ccc(-c2nnc3sc(CN4CCN(c5ccccc5)CC4)cn23)cc1 | -1.83%
O=C(CN1C(=O)COc2ccccc21)N(Cc1ccccc1)Cc1ccccn1 | -24.4%
C=CC[N+](C)(C)C/C(Cl)=C(\Cl)c1ccccc1.[Br-] | -5.01%
COc1cc(NC(=O)C/C(C)=N/NC(=O)Cc2ccccc2)c(OC)cc1Cl | 0.288%
CC1(C)Cc2cccc(OCC(=O)N3CCN(S(=O)(=O)c4ccccc4)CC3)c2O1 | -31.3%
O=C1c2ccccc2C(Nc2ccc(F)c(Cl)c2)N1Cc1ccco1 (stereo not shown) | -4.68%
Cc1noc(NS(=O)(=O)c2ccc(N/C=C\C(=O)c3ccncc3)cc2)c1C | -4.04%
COc1ccc(/C=N/NC2=NS(=O)(=O)c3ccccc32)cc1OC(C)=O | 15.1%
COC(=O)C1=C(c2ccc(OC(F)(F)F)cc2)C[C@@H]2CC[C@H]1N2C(=O)N1CCC(C)CC1 | -27.1%
